# Screen size: about 3,200 compounds; about 110 (3.4%) showed an effect of 50% or more. Some of the results follow.
# Tested on: T1, V. cholerae SAD30
# T1 construct: SAD30
# Design: species or system S. aureus MSSA476 (TSB) or V. cholerae SAD30 (LB); 384-well bacterial growth screen at 25 uM, OD600 relative to DMSO control
# Settings: relative growth, OD600, LB; 25 µM; inhibitor
row,Structure (SMILES),% of control remaining [%]
1,Cc1cccc(-n2cc(C(=O)CCl)nn2)c1 [10-L07],5.299
2,"N#CC(=Cc1ccccc1OC(F)F)C(=O)NC1CCCCC1 [8-H18, 2-cyano-N-cyclohexyl-3-[2-(difluoromethoxy)phenyl]prop-2-enamide]",69.1366
3,"COc1cc(C=C(C#N)C(=O)Nc2ccccn2)ccc1O [9-P08, 2-cyano-3-(4-hydroxy-3-methoxyphenyl)-N-(pyridin-2-yl)prop-2-enamide]",90.4827
4,"CCc1nsc(N2CCCN(C(=O)C(C)Cl)CC2)n1 (stereo not shown) [7-B15, 2-chloro-1-[4-(3-ethyl-1,2,4-thiadiazol-5-yl)-1,4-diazepan-1-yl]propan-1-one]",78.903
5,"Cc1csc(CN(CC2CCCO2)C(=O)C(C)Cl)n1 (stereo not shown) [7-E09, 2-chloro-N-[(4-methyl-1,3-thiazol-2-yl)methyl]-N-[(oxolan-2-yl)methyl]propanamide]",81.8107
6,"C=CC(=O)Nc1cc(NC(=O)[C@@H]2CSCN2C(=O)CC)ccc1F [2-P18, (4R)-N-[4-fluoro-3-(prop-2-enamido)phenyl]-3-propanoyl-1,3-thiazolidine-4-carboxamide]",99.4596
7,"CC(Cl)C(=O)Nc1nc(-c2ccccc2)cs1 (stereo not shown) [6-L10, 2-chloro-N-(4-phenyl-1,3-thiazol-2-yl)propanamide]",85.6953
8,"CCOC(=O)c1c(NC(=O)CCl)sc2c1CCCC2 [6-I11, ethyl 2-(2-chloroacetamido)-4,5,6,7-tetrahydro-1-benzothiophene-3-carboxylate]",79.3251
9,"C=CC(=O)Nc1ccc(-n2nc(C)[nH]c2=O)cc1 [2-E16, N-[4-(3-methyl-5-oxo-4,5-dihydro-1H-1,2,4-triazol-1-yl)phenyl]prop-2-enamide]",91.8942
10,"CC(Cl)C(=O)N1Cc2ccoc2CC(C)(C)C1 (stereo not shown) [5-P21, 2-chloro-1-{7,7-dimethyl-4H,5H,6H,7H,8H-furo[3,2-c]azepin-5-yl}propan-1-one]",108.438
11,"CC(C)c1ccc(-c2cc(NC(=O)CCl)n(-c3ccccc3)n2)cc1 [4-C16, 2-chloro-N-{1-phenyl-3-[4-(propan-2-yl)phenyl]-1H-pyrazol-5-yl}acetamide]",99.2021
12,"C=CC(=O)NCc1cccc(NS(C)(=O)=O)c1 [3-K15, N-[(3-methanesulfonamidophenyl)methyl]prop-2-enamide]",91.0311
13,"N#CC(=Cc1csnn1)C(=O)Nc1ccc(Oc2ccccc2)cc1 [8-M12, 2-cyano-N-(4-phenoxyphenyl)-3-(1,2,3-thiadiazol-4-yl)prop-2-enamide]",62.2026
14,"C=CC(=O)N1CCC(C(=O)N[C@H]2CC[C@@H](CC#N)C2)CC1 (racemic) [2-G21, rac-N-[(1R,3S)-3-(cyanomethyl)cyclopentyl]-1-(prop-2-enoyl)piperidine-4-carboxamide]",101.776
15,"CC1=C(C#N)C(=O)N(C2CCS(=O)(=O)C2)C(=O)C1=Cc1ccco1 (stereo not shown) [9-O13, 1-(1,1-dioxo-1lambda6-thiolan-3-yl)-5-[(furan-2-yl)methylidene]-4-methyl-2,6-dioxo-1,2,5,6-tetrahydropyridine-3-carbonitrile]",90.6186
16,"CCn1c2ccccc2c2cc(NC(=O)C(C)Cl)ccc21 (stereo not shown) [4-E12, 2-chloro-N-(9-ethyl-9H-carbazol-3-yl)propanamide]",90.4033
17,"C=CC(=O)NC(Cc1ccccc1)c1ccccn1 (stereo not shown) [2-K14, N-[2-phenyl-1-(pyridin-2-yl)ethyl]prop-2-enamide]",85.1008
18,"C=CC(=O)N1CCC([C@@H](C)O)CC1 [3-E12, 1-{4-[(1R)-1-hydroxyethyl]piperidin-1-yl}prop-2-en-1-one]",104.617
19,"Cc1ccc(C=C(C#N)C(=O)Nc2ccccc2Cl)s1 [9-C22, N-(2-chlorophenyl)-2-cyano-3-(5-methylthiophen-2-yl)prop-2-enamide]",95.7852
20,"Cl.O=C(CCl)NC1CCN(Cc2ccccc2)C1 (stereo not shown) [6-G18, N-(1-benzylpyrrolidin-3-yl)-2-chloroacetamide hydrochloride]",91.1556
21,"C=CC(=O)N1CCC(C(=O)N2CCCC(CC(N)=O)CC2)CC1 (stereo not shown) [2-F12, 2-{1-[1-(prop-2-enoyl)piperidine-4-carbonyl]azepan-4-yl}acetamide]",87.88
22,"CCN(Cc1cccc(C)c1)C(=O)CCl [5-J16, 2-chloro-N-ethyl-N-[(3-methylphenyl)methyl]acetamide]",90.1124
23,"C#CCN1C(=O)C=CC1=O [10-F09, 1-(prop-2-yn-1-yl)-2,5-dihydro-1H-pyrrole-2,5-dione]",15.1179
24,"CCN1C(=O)C(=Cc2ccc(-c3ccc(F)cc3)o2)C(C)=C(C#N)C1=O [9-P09, 1-ethyl-5-{[5-(4-fluorophenyl)furan-2-yl]methylidene}-4-methyl-2,6-dioxo-1,2,5,6-tetrahydropyridine-3-carbonitrile]",92.794
25,"N#CC(=Cc1cc(F)ccc1F)C(=O)Nc1ccc(F)cc1F [8-C10, 2-cyano-N-(2,4-difluorophenyl)-3-(2,5-difluorophenyl)prop-2-enamide]",78.2461
26,"C=CC(=O)NC1CC2(CCC(C(=O)O)CC2)C1 (stereo not shown) [2-I16, 2-(prop-2-enamido)spiro[3.5]nonane-7-carboxylic acid]",94.8278
27,"COc1cc(C=C(C#N)C(=O)NC2CCCCC2C)cc(OC)c1O (stereo not shown) [9-H21, 2-cyano-3-(4-hydroxy-3,5-dimethoxyphenyl)-N-(2-methylcyclohexyl)prop-2-enamide]",94.9694
28,"C=CC(=O)NCc1ccc(C(=O)N2CCN(c3nc(C)n[nH]3)CC2)cc1 [2-F22, N-({4-[4-(3-methyl-1H-1,2,4-triazol-5-yl)piperazine-1-carbonyl]phenyl}methyl)prop-2-enamide]",111.657
